Results from ChEMBL document CHEMBL1201862, “PubChem BioAssay data set” (2004).

Tested on: NCI-H322M
Assay: inhibition of tumour cell growth, NCI panel, 48 h

Row | Compound | GI50
1 | CCOC(=O)c1csc(NC(=O)CN2CCOCC2)n1 | inactive: > 100 µM
2 | CCN(CC)CCn1c2ccccc2c(=O)c2c(O)ccc(O)c21 | inactive: 48.4 µM
3 | COC(=O)c1ccc(C)cc1C1CN=NC12Cc1cc(C)ccc1C2=O (stereo unspecified) | inactive: 28.2 µM
4 | Nc1ccc(C(=O)NN2C(=O)[C@H](Cl)C2c2ccc(Cl)cc2)cc1 (stereo partly specified) | inactive: 2.08 µM
5 | CCOC(=O)C1=C(N2CCCC2)C(=O)C(C(=O)OCC)C1 (stereo unspecified) | inactive: > 100 µM
6 | COC(=O)CC1NC(=O)C1C(C)(OC)OC (stereo unspecified) | inactive: > 100 µM
7 | CCN(CC)CCC(=O)NC1c2ccc(Cl)cc2Oc2c(C)cccc21 (stereo unspecified) | inactive: 15.8 µM
8 | O=c1[nH]cc(OCC(F)(F)F)c(=O)[nH]1 | inactive: > 100 µM
9 | CC(=O)NC(C)c1ccc(/N=N/N2CCCC2)cc1 (stereo unspecified) | inactive: > 100 µM
10 | COc1cc2[nH]c(=O)c3cc(-c4ccccc4)cc4c(Cl)nc(c1OC)c2c43 | inactive: 29 µM
11 | Cc1cccc2c(N)c3cccc(C(=O)NCC[N+](C)(C)[O-])c3nc12 | inactive: 10.4 µM
12 | O=C(Nc1sccc1S(=O)(=O)c1ccc(Cl)cc1)c1ccc(Cl)cc1 | inactive: > 100 µM
13 | O=c1n(/N=C/c2ccccc2)c(=O)n2n1C1C=CC2CC1 | inactive: > 100 µM
14 | CCCCCCCCC[C@@H]1C[C@H](O)[C@H](Cc2ccccc2)N1C(=O)OC(C)(C)C | inactive: 18.1 µM
15 | COc1ccc(C2OCCN2C)cc1 (stereo unspecified) | inactive: > 100 µM
16 | COC(=O)[C@H](Cc1ccccc1)NC(=O)c1ccc(CNC(=O)/C=C/c2ccc(OCc3ccccc3)cc2)cc1 | inactive: 22.5 µM
17 | Cc1c(-c2cc(-c3ccccc3)n[nH]c2=O)c2ccccc2n1C | inactive: > 100 µM
18 | Nc1ccc(C(=O)CC(N)C(=O)O)cc1O (stereo unspecified) | inactive: > 100 µM
19 | COc1cc(/C=C/C(=O)C2(C(=O)/C=C/c3cc(OC)c(OC)c(OC)c3)CCCCC2)cc(OC)c1OC | inactive: > 100 µM
20 | Cc1cc(C)c2c(c1)C/C(=C\c1cccc(C)c1C(=O)O)C2=O | inactive: 80.7 µM
21 | NC1=NC2=C(CCCC2)C(c2cccs2)S1 (stereo unspecified) | inactive: > 100 µM
22 | CCOC(=O)c1cnc2oc(-c3ccc(OC)cc3)nn2c1=O | inactive: > 100 µM
23 | Cc1cc(C)c(N[S+]([O-])c2cccc(C(F)(F)F)c2)c(C)c1 (stereo unspecified) | inactive: > 100 µM

Row | Compound | GI50
24 | CCCNC(=S)N/N=C/c1cccc(C)n1 | inactive: 39.7 µM
25 | CC1=CP(=O)(c2c(C(C)C)cc(C(C)C)cc2C(C)C)CCC1Cl (stereo unspecified) | inactive: 14.6 µM
26 | O=S(=O)(O)c1ccc(/N=N/c2ccccc2)cc1 | inactive: > 100 µM
27 | CC(C)=CC(=O)c1[nH]c2ccccc2c1CC(=O)NCCc1cncn1C | inactive: 74.1 µM
28 | CNC(=O)CCC(NC(C)=O)C(=O)NC(Cc1ccc(NC(=O)CCCCC(C)=O)cc1)C(=O)NC(CCC(=O)NC)C(=O)NC (stereo unspecified) | inactive: > 100 µM
29 | COc1ccc(-c2cn3c(nc4ccccc43)c(/C=C/c3cccs3)n2)cc1 | inactive: 64.1 µM
30 | COc1c2c(nc3ccccc13)-c1cc(C(CC(=O)OC(C)(C)C)C(=O)OC(C)C)c(CO)c(=O)n1C2 (stereo unspecified) | inactive: > 100 µM
31 | COc1cc(S(=O)(=O)Nc2nc(-c3ccc(N4C(=O)C(CC(=O)O)SC4c4ccccc4O)cc3)cs2)ccc1Cl (stereo unspecified) | inactive: 69.8 µM
32 | CN(C)CCNC(=O)c1cccc2nc3ccc4cccnc4c3nc12 | active: 0.303 µM
33 | O=C1c2ccccc2C(=O)N1[C@@H](Cc1ccccc1)C(=O)n1cccc1CO | inactive: > 100 µM
34 | C/C(CC(=O)Nc1cccc(Cl)c1C)=N\NC(=O)c1ccncc1 | inactive: > 100 µM
35 | COc1ccccc1/C=C/c1nc2ccccc2o1 | inactive: > 10 µM
36 | Cc1cc(C)c(C2CC(O)C(CO)O2)cc1C (stereo unspecified) | inactive: > 100 µM
37 | CN1CCc2cc(O)c3cc2C1Cc1ccc(cc1)Oc1cc(ccc1O)CC1c2c(cc4c(c2O3)OCO4)CCN1C (stereo unspecified) | inactive: 53.7 µM
38 | Cn1nc2ccc3nccc(N4CCN(CCO)CC4)c3c2n1 | inactive: > 100 µM
39 | CCOP(=O)(OCC)OC1C=CC2CCC1C2 (stereo unspecified) | inactive: > 100 µM
40 | Nc1ccccc1CCN1CCN(CCCc2ccccc2)CC1 | inactive: 72.1 µM
41 | COC(=O)C(CC(=O)c1ccccc1)c1ccccc1NC(C)=O (stereo unspecified) | inactive: > 100 µM
42 | Cc1ccc(NC(=O)/C(=N/N(C)C)C(C2OC(=O)c3ccccc32)[N+](=O)[O-])cc1 (stereo unspecified) | inactive: > 100 µM
43 | C/C(CC(O)(C(F)(F)Cl)C(F)(F)Cl)=N\Nc1ccccc1 | inactive: 30.4 µM
44 | Clc1ccc(/C(=C/c2ccccc2)Cn2ccnc2)cc1 | inactive: 46.1 µM
45 | Cn1c(NC(=O)NC23CC4CC(CC(C4)C2)C3)nc2ccccc21 | inactive: 88.7 µM
46 | Cc1c2c(n(CCN(C)C)c1C)NN=C(C#N)S2(=O)=O | inactive: > 100 µM

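Interpolation was linear, between the two tested concentrations surrounding the appropriate level; five concentrations were tested over 48 hours in 96-well plates. GI50: concentration for 50% inhibition of growth.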 Active and inactive are the calls of the source. Cut-off read from the data, not from the text of the source: active = GI50 up to about 1.1 µM and inactive = higher.
